Results: paper PMC7337490
Residue numbers refer to the chain shown, from its start. No constants are given. Whether binding was seen depends on the method and setting. For some of these results: Binding seen in cells or lysates may run through a third protein. Some results given as binding are weak or reduced against the parent protein; the word gives no strength. For some of these results: Sequences can lack the tags named with a protein.

Amino acid sequences for entries named in this document (tags omitted). A change or cut given only in a name is not applied to a line headed by its entry. Chains listed by the source or under a name are the forms on record and can include a tag or linker. Residues count along the entry.
UniProt O95235: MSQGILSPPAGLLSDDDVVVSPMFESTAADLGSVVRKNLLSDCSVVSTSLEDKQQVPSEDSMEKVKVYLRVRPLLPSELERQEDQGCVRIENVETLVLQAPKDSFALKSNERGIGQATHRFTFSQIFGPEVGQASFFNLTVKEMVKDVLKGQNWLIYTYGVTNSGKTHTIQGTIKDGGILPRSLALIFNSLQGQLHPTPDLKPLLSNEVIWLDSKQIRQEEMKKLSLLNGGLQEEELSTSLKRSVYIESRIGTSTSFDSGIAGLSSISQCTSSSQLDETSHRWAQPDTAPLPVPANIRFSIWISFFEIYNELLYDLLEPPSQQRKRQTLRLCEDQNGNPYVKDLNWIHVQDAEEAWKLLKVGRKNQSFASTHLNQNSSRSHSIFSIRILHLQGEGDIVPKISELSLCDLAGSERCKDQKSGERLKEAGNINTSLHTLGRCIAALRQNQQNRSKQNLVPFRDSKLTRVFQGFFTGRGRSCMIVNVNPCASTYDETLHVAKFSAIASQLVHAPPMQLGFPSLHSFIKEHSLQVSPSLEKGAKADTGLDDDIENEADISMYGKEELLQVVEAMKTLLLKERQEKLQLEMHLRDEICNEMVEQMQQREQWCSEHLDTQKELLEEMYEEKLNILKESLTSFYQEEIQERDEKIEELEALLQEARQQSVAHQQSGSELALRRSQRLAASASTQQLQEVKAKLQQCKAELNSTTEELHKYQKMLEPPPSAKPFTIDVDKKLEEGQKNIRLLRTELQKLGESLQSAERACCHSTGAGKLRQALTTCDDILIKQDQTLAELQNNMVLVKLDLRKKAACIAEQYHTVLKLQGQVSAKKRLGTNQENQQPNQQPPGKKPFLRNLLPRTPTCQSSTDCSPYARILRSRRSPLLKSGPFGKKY
GFP-MKLP2^535-718: residues 535-718 of O95235
MKLP2^557-668: residues 557-668 of O95235
GFP-MKLP2 Δ690-705 (O95235, form named): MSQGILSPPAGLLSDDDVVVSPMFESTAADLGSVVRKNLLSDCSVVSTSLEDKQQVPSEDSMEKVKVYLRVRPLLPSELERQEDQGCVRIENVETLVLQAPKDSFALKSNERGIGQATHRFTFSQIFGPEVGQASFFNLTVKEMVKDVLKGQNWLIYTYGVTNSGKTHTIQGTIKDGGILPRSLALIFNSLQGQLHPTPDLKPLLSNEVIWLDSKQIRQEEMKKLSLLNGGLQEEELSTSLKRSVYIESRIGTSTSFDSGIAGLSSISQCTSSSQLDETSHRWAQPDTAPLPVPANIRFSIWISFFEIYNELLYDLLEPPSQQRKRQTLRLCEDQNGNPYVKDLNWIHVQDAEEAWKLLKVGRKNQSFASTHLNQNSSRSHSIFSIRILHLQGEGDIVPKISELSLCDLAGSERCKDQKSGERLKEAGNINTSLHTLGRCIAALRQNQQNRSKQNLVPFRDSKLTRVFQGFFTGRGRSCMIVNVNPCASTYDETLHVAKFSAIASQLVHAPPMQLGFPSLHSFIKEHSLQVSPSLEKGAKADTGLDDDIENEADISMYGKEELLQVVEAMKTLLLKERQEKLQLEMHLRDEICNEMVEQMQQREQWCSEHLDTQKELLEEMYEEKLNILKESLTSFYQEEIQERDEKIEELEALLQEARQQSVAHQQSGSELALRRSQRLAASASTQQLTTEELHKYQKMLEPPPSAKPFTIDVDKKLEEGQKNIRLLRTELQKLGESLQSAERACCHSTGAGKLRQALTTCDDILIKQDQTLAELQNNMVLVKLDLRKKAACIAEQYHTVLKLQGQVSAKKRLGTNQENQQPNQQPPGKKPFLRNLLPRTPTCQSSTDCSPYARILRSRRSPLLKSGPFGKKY
GFP-MKLP2 Δ636-652 (O95235, form named): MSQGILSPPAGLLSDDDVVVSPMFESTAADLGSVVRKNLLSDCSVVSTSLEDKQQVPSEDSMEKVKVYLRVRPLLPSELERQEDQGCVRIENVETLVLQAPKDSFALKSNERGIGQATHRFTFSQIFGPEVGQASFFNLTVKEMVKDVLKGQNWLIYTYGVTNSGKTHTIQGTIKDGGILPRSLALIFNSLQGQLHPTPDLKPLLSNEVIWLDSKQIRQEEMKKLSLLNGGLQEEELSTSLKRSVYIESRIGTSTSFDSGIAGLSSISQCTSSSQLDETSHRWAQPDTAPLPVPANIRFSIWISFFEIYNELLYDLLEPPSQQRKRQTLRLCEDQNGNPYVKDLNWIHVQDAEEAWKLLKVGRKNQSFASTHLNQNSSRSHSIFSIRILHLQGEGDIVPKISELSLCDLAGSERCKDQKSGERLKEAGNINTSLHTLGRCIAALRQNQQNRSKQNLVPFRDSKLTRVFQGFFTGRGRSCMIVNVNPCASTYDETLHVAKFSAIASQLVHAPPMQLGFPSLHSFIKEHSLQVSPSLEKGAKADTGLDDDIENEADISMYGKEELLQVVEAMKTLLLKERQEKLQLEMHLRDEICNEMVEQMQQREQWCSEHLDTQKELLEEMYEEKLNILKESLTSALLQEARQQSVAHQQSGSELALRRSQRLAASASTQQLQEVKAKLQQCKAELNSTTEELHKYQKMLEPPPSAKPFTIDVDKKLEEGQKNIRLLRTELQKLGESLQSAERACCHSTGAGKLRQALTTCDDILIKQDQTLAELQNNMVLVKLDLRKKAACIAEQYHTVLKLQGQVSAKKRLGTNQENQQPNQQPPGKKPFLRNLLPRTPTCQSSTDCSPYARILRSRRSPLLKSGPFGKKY
GFP-MKLP2 RRSQR (penta-alanine substitution) mutant (O95235, form named): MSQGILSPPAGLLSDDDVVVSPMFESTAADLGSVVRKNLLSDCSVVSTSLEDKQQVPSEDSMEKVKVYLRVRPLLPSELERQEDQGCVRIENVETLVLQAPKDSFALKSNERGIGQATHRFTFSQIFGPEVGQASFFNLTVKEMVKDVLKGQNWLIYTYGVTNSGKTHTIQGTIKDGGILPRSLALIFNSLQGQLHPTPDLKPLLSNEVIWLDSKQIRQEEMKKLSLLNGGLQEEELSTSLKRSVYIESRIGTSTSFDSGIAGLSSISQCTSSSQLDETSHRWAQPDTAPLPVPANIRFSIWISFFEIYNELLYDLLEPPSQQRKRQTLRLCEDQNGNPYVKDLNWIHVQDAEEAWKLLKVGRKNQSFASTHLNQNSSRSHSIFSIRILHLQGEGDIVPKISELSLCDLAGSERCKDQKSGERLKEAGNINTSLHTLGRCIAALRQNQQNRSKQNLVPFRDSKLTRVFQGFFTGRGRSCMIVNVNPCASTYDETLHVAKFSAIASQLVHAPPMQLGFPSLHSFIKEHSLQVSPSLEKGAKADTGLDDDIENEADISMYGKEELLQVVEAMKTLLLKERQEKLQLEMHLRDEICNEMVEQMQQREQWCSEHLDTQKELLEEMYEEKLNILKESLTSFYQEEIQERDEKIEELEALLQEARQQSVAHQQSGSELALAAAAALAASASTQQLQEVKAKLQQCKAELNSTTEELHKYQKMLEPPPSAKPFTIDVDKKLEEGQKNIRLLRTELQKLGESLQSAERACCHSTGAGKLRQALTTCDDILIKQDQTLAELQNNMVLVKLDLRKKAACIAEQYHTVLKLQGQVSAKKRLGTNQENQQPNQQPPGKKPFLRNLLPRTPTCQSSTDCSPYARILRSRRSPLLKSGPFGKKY
UniProt Q96GD4: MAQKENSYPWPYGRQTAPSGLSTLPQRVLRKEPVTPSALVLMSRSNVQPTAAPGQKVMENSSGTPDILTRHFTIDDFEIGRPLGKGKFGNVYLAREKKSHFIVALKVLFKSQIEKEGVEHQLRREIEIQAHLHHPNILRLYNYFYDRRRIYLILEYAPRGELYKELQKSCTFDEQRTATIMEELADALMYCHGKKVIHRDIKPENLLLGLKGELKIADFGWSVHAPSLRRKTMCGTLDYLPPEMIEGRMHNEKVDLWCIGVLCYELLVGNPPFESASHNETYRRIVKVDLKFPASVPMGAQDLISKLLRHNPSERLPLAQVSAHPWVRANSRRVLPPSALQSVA
UniProt O15392: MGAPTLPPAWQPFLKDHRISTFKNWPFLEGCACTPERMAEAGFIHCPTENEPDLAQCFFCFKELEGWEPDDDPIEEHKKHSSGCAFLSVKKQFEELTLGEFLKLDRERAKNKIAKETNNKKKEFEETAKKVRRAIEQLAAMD

Columns and labels:
[1] = molecular target: T1, GFP-INCENP 1–80 RRKKRR (RRKKRR to hexa-alanine mutant) (human) (UniProt Q9NQS7); assay: co-IP; anti-GFP IP of GFP-INCENP constructs from transfected HeLa cells, nocodazole arrest, collected 0 and 30 min after MPS1 inhibitor AZ3146 (metaphase, anaphase); Benzonase-treated lysate; Western blot
T1 sequence: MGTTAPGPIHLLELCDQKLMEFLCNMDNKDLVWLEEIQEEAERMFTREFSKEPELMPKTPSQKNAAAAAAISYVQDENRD

GFP-INCENP T59E (human) = GFP-INCENP T59E (human) (UniProt Q9NQS7); assay: as above
GFP-INCENP 1–80 (human) = molecular target: T2, GFP-INCENP 1–80 (human) (UniProt Q9NQS7); assay: as above
T2 sequence: T1 sequence with A65R, A66R, A67K, A68K, A69R, A70R

[2] = molecular target: Full-length GFP-INCENP (WT) (human) (UniProt Q9NQS7); assay: as above
[3] = molecular target: GFP-MKLP2^535-718 (human) (UniProt O95235); assay: co-IP; GFP IP from HeLa T-REx GFP-MKLP2^535-718 cells, doxycycline 18 h, nocodazole 18 h, forced into anaphase with 5 µM flavopiridol; Western blot
GFP-MKLP2 WT (human) = GFP-MKLP2 WT (human) (UniProt O95235); assay: co-IP; anti-GFP IP of GFP-MKLP2 constructs from transfected HeLa cells, nocodazole arrest, collected 0, 20 and 30 min after MPS1 inhibitor AZ3146; Western blot
[4] = molecular target: GFP-MKLP2 Δ690-705 (human) (UniProt O95235); assay: as above
[5] = molecular target: GFP-MKLP2 Δ636-652 (human) (UniProt O95235); assay: as above
[6] = molecular target: GFP-MKLP2 RRSQR (penta-alanine substitution) mutant (human) (UniProt O95235); assay: as above
MKLP2^557-668 (human) = MKLP2^557-668 (human) (UniProt O95235); assay: SEC; CPC variants and MKLP2^557-668 mixed 1:1, 30 min on ice in 100 mM NaCl, 20 mM Tris-HCl pH 8.0, 1 mM DTT, 10% glycerol; analytical Superdex 200 increase 10/300 at 4°C; fractions on stained gels; both purified

MKLP2 (endogenous) (from UniProt O95235 1-890)
binding [1]: no binding | binding (GFP-INCENP T59E (human)): no binding | binding (GFP-INCENP 1–80 (human)): binds | binding [2]: binds

chromosomal passenger complex (CPC), endogenous (from UniProt Q96GD4 1-344; Q9NQS7 1-918; O15392 1-142; Q53HL2 1-280)
binding [3]: binds | binding (GFP-MKLP2 WT (human)): binds | binding [4]: binds | binding [5]: no binding | binding [6]: binds

CPI80^RRKKRR (CPI80 with the INCENP RRKKRR-motif replaced with alanine residues) (from UniProt O15392 1-142; Q9NQS7 1-80; Q53HL2 10-109) (complex)
binding (MKLP2^557-668 (human)): no binding
